Results taken from the supplement of paper PMC4967469.

How the values were obtained:
Assay in all cases: Viability of human cancer cell lines after 72 h of drug (GDSC screen)
SNX-2112 = compound: CC1(C)CC(=O)c2c(C(F)(F)F)nn(-c3ccc(C(N)=O)c(N[C@H]4CC[C@H](O)CC4)c3)c2C1 [SNX-2112]; conditions: top dose 2.56 µM
Protocol: (§1)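 Human cancer cell lines in 384-well plates, medium with 10% serum, drug for 72 h over a 256-fold dose range (nine 2-fold or five 4-fold steps up to the top dose). Adherent lines were fixed and stained with the nucleic acid dye Syto60, suspension lines read with resazurin; signal relative to control wells, capped at 0 and 100%. One two-parameter sigmoid per drug and line, fitted in a mixed model over all curves with the slope shared within a line.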

XMD13-2 = compound: O=C(NC1CC1)c1cccc(-c2ccc3c(NC(=O)C4CC4)n[nH]c3c2)c1 [XMD13-2]; conditions: top dose 10.24 µM; top dose inferred
Protocol: as §1

PF-562271 = compound: CN(c1ncccc1CNc1nc(Nc2ccc3c(c2)CC(=O)N3)ncc1C(F)(F)F)S(C)(=O)=O [PF-562271]; conditions: top dose 2.56 µM; top dose inferred
Protocol: as §1

Vinblastine = compound: CC[C@]1(O)C[C@@H]2CN(CCc3c([nH]c4ccccc34)[C@@](C(=O)OC)(c3cc4c(cc3OC)N(C)[C@H]3[C@@](O)(C(=O)OC)[C@H](OC(C)=O)[C@]5(CC)C=CCN6CC[C@]43[C@@H]65)C2)C1 [Vinblastine]; conditions: top dose 0.1 µM; top dose inferred
Protocol: as §1

Afatinib = compound: CN(C)C/C=C/C(=O)Nc1cc2c(Nc3ccc(F)c(Cl)c3)ncnc2cc1O[C@H]1CCOC1 [Afatinib]
Protocol: as §1

[1] = top dose 0.5 µM, screen: GDSC drug entry 1032
[2] = top dose 10 µM, screen: GDSC drug entry 1377, top dose inferred

Cell Line	AUC (SNX-2112)	IC50 (SNX-2112)	AUC (XMD13-2)	IC50 (XMD13-2)	AUC (PF-562271)	IC50 (PF-562271)	AUC (Vinblastine)	IC50 (Vinblastine)	AUC (Afatinib; [1])	IC50 (Afatinib; [1])	AUC (Afatinib; [2])	IC50 (Afatinib; [2])
EW-3 (Ewing sarcoma, adherent)	0.487	0.147 µM	0.881	> 10.2 µM	0.984	> 2.56 µM	0.631	0.0152 µM	0.98	> 0.5 µM	0.895	> 10 µM
EW-7 (Ewing sarcoma, semi-adherent)	0.235	0.0308 µM	0.876	8.06 µM	0.908	> 2.56 µM	0.866	0.0719 µM	0.981	> 0.5 µM	0.983	> 10 µM
EW-11 (Ewing sarcoma, adherent)	0.549	0.226 µM	0.852	> 10.2 µM	0.933	> 2.56 µM	0.542	0.00841 µM	0.952	> 0.5 µM	0.89	> 10 µM
EW-13 (Ewing sarcoma, suspension)	0.32	0.0472 µM	0.765	4.15 µM	0.833	1.91 µM	0.927	> 0.1 µM	0.976	> 0.5 µM	0.982	> 10 µM
EW-16 (Ewing sarcoma, adherent)	0.577	0.263 µM	0.848	8.15 µM	0.855	2.19 µM	0.562	0.0093 µM	0.971	> 0.5 µM	0.886	> 10 µM
EW-18 (Ewing sarcoma, suspension)	0.486	0.146 µM	0.71	2.62 µM	0.891	> 2.56 µM	0.536	0.0079 µM	0.975	> 0.5 µM	0.962	> 10 µM
EW-24 (Ewing sarcoma, semi-adherent)	0.837	1.43 µM	0.992	> 10.2 µM	0.992	> 2.56 µM	0.925	> 0.1 µM	0.99	> 0.5 µM	0.991	> 10 µM
EoL-1-cell (haematopoietic neoplasm, suspension)	0.217	0.027 µM	0.869	7.62 µM	0.906	> 2.56 µM	0.27	0.00152 µM	0.963	> 0.5 µM	0.935	> 10 µM
FADU (head and neck, adherent)	0.811	1.3 µM	0.96	> 10.2 µM	0.967	> 2.56 µM	0.671	0.0183 µM	0.55	0.0427 µM	0.703	2.27 µM
FTC-133 (thyroid, adherent)	0.956	> 2.56 µM	0.983	> 10.2 µM	0.979	> 2.56 µM	0.586	0.011 µM	0.966	> 0.5 µM	0.881	> 10 µM
FU97 (stomach, adherent)	0.875	> 2.56 µM	0.971	> 10.2 µM	0.927	> 2.56 µM	0.812	0.0554 µM	0.978	> 0.5 µM	0.984	> 10 µM
FU-OV-1 (ovary, adherent)	0.899	> 2.56 µM	0.972	> 10.2 µM	0.931	> 2.56 µM	0.893	> 0.1 µM	0.936	> 0.5 µM	0.926	> 10 µM
G-292 Clone A141B1 (osteosarcoma, adherent)	0.784	1.9 µM	0.972	> 10.2 µM	0.525	0.195 µM	0.684	0.028 µM	0.976	> 0.5 µM	0.947	> 10 µM
G-361 (melanoma, adherent)	0.694	0.546 µM	0.985	> 10.2 µM	0.898	> 2.56 µM	0.739	0.0291 µM	0.982	> 0.5 µM	0.987	> 10 µM
G-401 (kidney, adherent)	0.507	0.167 µM	0.956	> 10.2 µM	0.858	2.44 µM	0.54	0.00814 µM	0.879	> 0.5 µM	0.923	> 10 µM
G-402 (soft tissue, adherent)	0.686	0.635 µM	0.919	> 10.2 µM	0.813	2 µM	0.556	0.00932 µM	0.95	> 0.5 µM	0.95	> 10 µM
G-MEL (melanoma, adherent)	0.887	> 2.56 µM	0.825	6.04 µM	0.984	> 2.56 µM	0.358	0.00254 µM	0.986	> 0.5 µM	0.967	> 10 µM
GB-1 (glioma, adherent)	0.308	0.0416 µM	0.961	> 10.2 µM	0.923	> 2.56 µM	0.765	0.0429 µM	0.975	> 0.5 µM	0.945	> 10 µM
GCIY (stomach, adherent)	0.849	2.31 µM	0.939	> 10.2 µM	0.839	2.09 µM	0.795	0.0536 µM	0.824	0.351 µM		
GDM-1 (acute myeloid leukaemia, suspension)	0.105	< 0.01 µM	0.701	2.29 µM	0.928	> 2.56 µM	0.963	> 0.1 µM	0.987	> 0.5 µM	0.965	> 10 µM
GI-1 (glioma, adherent)	0.314	0.0495 µM	0.916	> 10.2 µM	0.911	> 2.56 µM	0.468	0.00514 µM	0.986	> 0.5 µM	0.966	> 10 µM
GI-ME-N (neuroblastoma, adherent)	0.392	0.0725 µM	0.75	4.46 µM	0.86	> 2.56 µM	0.506	0.00654 µM	0.971	> 0.5 µM	0.954	> 10 µM

Cell Line	AUC (SNX-2112)	IC50 (SNX-2112)	AUC (XMD13-2)	IC50 (XMD13-2)	AUC (PF-562271)	IC50 (PF-562271)	AUC (Vinblastine)	IC50 (Vinblastine)	AUC (Afatinib; [1])	IC50 (Afatinib; [1])	AUC (Afatinib; [2])	IC50 (Afatinib; [2])
GMS-10 (glioma, adherent)	0.904	> 2.56 µM	0.986	> 10.2 µM	0.982	> 2.56 µM	0.586	0.0108 µM	0.943	> 0.5 µM		
GOTO (neuroblastoma, adherent)	0.753	0.962 µM	0.942	> 10.2 µM	0.925	> 2.56 µM	0.539	0.00808 µM	0.984	> 0.5 µM	0.975	> 10 µM
GR-ST (lymphoblastic leukaemia, suspension)	0.361	0.0606 µM	0.789	5.62 µM	0.938	> 2.56 µM	0.534	0.00787 µM	0.978	> 0.5 µM	0.92	> 10 µM
GRANTA-519 (B-cell lymphoma, suspension)	0.653	0.405 µM	0.877	8.51 µM	0.982	> 2.56 µM	0.601	0.0114 µM	0.991	> 0.5 µM	0.97	> 10 µM
GT3TKB (stomach, adherent)	0.518	0.178 µM	0.958	> 10.2 µM	0.922	> 2.56 µM	0.246	0.0013 µM	0.981	> 0.5 µM	0.905	> 10 µM
H4 (glioma, adherent)	0.548	0.216 µM	0.908	> 10.2 µM	0.863	2.17 µM	0.515	0.00687 µM	0.986	> 0.5 µM	0.949	> 10 µM
H9 (lymphoid neoplasm, suspension)	0.167	0.0204 µM	0.989	> 10.2 µM	0.912	2.55 µM	0.48	0.00556 µM	0.992	> 0.5 µM	0.95	> 10 µM
H513 (mesothelioma, semi-adherent)	0.972	> 2.56 µM	0.971	> 10.2 µM	0.985	> 2.56 µM	0.85	> 0.1 µM	0.957	> 0.5 µM	0.86	> 10 µM
H2369 (mesothelioma, adherent)	0.538	0.204 µM	0.954	> 10.2 µM	0.98	> 2.56 µM	0.41	0.0035 µM	0.987	> 0.5 µM	0.977	> 10 µM
H2373 (mesothelioma, adherent)	0.811	1.81 µM	0.962	> 10.2 µM	0.949	> 2.56 µM	0.701	0.0269 µM	0.983	> 0.5 µM	0.98	> 10 µM
H2461 (mesothelioma, adherent)	0.952	> 2.56 µM	0.983	> 10.2 µM	0.965	> 2.56 µM	0.775	0.0499 µM	0.982	> 0.5 µM	0.961	> 10 µM
H2595 (mesothelioma, adherent)	0.969	> 2.56 µM	0.926	> 10.2 µM	0.915	> 2.56 µM	0.597	0.0128 µM	0.956	> 0.5 µM	0.954	> 10 µM
H2722 (mesothelioma, adherent)	0.931	> 2.56 µM	0.971	> 10.2 µM	0.863	> 2.56 µM	0.799	0.0589 µM	0.984	> 0.5 µM	0.923	> 10 µM
H2731 (mesothelioma, adherent)	0.893	> 2.56 µM	0.972	> 10.2 µM	0.948	> 2.56 µM	0.681	0.0216 µM	0.983	> 0.5 µM	0.982	> 10 µM
H2795 (mesothelioma, adherent)	0.648	0.409 µM	0.983	> 10.2 µM	0.983	> 2.56 µM	0.482	0.00557 µM	0.94	> 0.5 µM	0.986	> 10 µM
H2869 (mesothelioma, adherent)	0.716	0.767 µM	0.9	> 10.2 µM	0.898	> 2.56 µM	0.868	> 0.1 µM	0.984	> 0.5 µM	0.982	> 10 µM
H3118 (head and neck, adherent)	0.374	0.0693 µM	0.883	> 10.2 µM	0.841	2.03 µM	0.503	0.00635 µM	0.28	0.00698 µM	0.161	0.0503 µM
HA7-RCC (kidney, adherent)	0.842	2.08 µM	0.963	> 10.2 µM	0.971	> 2.56 µM	0.777	0.0443 µM	0.963	> 0.5 µM	0.909	> 10 µM
HAL-01 (lymphoblastic leukaemia, suspension)	0.394	0.085 µM	0.906	> 10.2 µM	0.949	> 2.56 µM	0.758	0.0311 µM	0.958	> 0.5 µM	0.968	> 10 µM
HC-1 (hairy cell leukaemia, suspension)	0.236	0.0286 µM	0.749	3.19 µM	0.94	> 2.56 µM	0.862	0.0803 µM	0.987	> 0.5 µM	0.961	> 10 µM
HCC1143 (breast, adherent)	0.478	0.136 µM	0.957	> 10.2 µM	0.867	> 2.56 µM	0.657	0.0205 µM	0.862	> 0.5 µM	0.921	> 10 µM
HCC1395 (breast, adherent)	0.948	> 2.56 µM	0.951	> 10.2 µM	0.973	> 2.56 µM	0.598	0.0123 µM	0.985	> 0.5 µM	0.977	> 10 µM

IC50 is the fitted dose that halves viability relative to control wells, and lower means more sensitive; a fit beyond the top or the lowest dose is shown as a bound at that dose. AUC, from the same fit, is the share of area under the viability curve across the 256-fold dose range; it is 1 without any effect and falls as sensitivity rises. For some assays here: Where the top dose is marked as inferred, it was calculated from the reported fits. For some assays here: Where an entry number is given, a second screen of the drug exists; the two often differ.
